In the antibiotic and cytotoxicity screens of Wong et al. (2023):
The list shows a part of the results.

These compounds were tested on S. aureus RN4220 (assay: growth inhibition call (relative growth <= 0.2)). Settings: 50 µM.

| Structure (SMILES) | growth inhibition call |
| --- | --- |
| CN1CCN(C2=Nc3ccccc3Oc3ccc(Cl)cc32)CC1.O=C(O)CCC(=O)O | inactive |
| Nc1cc(=O)nc2sc(C3CC3)nn12 | inactive |
| CCC(=O)NO | inactive |
| C[C@H]1CN([C@@H](C)CO)C(=O)c2cc(C#CCN(C)C)cnc2O[C@@H]1CN(C)S(C)(=O)=O | inactive |
| Cc1noc(C)c1S(=O)(=O)Nc1ccc2c(c1)C(=O)N([C@H](C)CO)C[C@@H](C)[C@@H](CN(C)C(=O)NC(C)C)O2 | inactive |
| C[C@H](CO)N1C[C@H](C)[C@@H](CN(C)S(=O)(=O)c2cn(C)cn2)Oc2ccc(NS(=O)(=O)c3ccccc3)cc2CC1=O | inactive |
| C[C@@H]1CN([C@@H](C)CO)C(=O)c2cccc(NS(=O)(=O)c3cn(C)cn3)c2O[C@@H]1CN(C)CC1CC1 | inactive |
| C[C@@H]1CN([C@H](C)CO)S(=O)(=O)c2ccc(C#Cc3ccccc3)cc2O[C@@H]1CN(C)S(C)(=O)=O | inactive |
| CN1C(=O)c2cc(NC(=O)Cc3cccs3)ccc2OC[C@H]2O[C@H](CC(=O)NCCc3ccncc3)CC[C@H]21 | inactive |
| CS(=O)(=O)N1C[C@@H](O)COC[C@H]2O[C@@H](CC(=O)NCc3ccccc3)CC[C@@H]21 | inactive |
| C[C@@H]1CN([C@H](C)CO)C(=O)Cc2cc(NC(=O)CCN3CCOCC3)ccc2O[C@@H]1CN(C)C(=O)NC1CCCCC1 | inactive |
| C[C@H]1CN([C@@H](C)CO)S(=O)(=O)c2ccc(C#Cc3ccc(F)cc3)cc2O[C@H]1CN(C)C(=O)c1ccccn1 | inactive |
| COc1ccc(S(=O)(=O)Nc2ccc3c(c2)C(=O)N([C@@H](C)CO)C[C@H](C)[C@@H](CN(C)C(=O)Nc2ccc4c(c2)OCO4)OCCCC[C@H](C)O3)cc1 | inactive |
| COc1ccc(S(=O)(=O)N[C@@H]2CC[C@H](CC(=O)N3CCC(Cc4ccccc4)CC3)O[C@@H]2CO)cc1 | inactive |
| COc1ccc(S(=O)(=O)Nc2ccc3c(c2)C(=O)N([C@H](C)CO)C[C@@H](C)[C@@H](CN(C)Cc2ccccc2)OCCCC[C@@H](C)O3)cc1 | inactive |
| CCS(=O)(=O)N1C[C@]2(CN(C2)C(=O)Nc2c(noc2C)C)c2c(n(c3cc(ccc23)OC)C)[C@@H]1CO | inactive |
| COc1cc2c(cc1OC)CN(C(=O)[C@H]1[C@@H]3C(=O)O[C@@H](c4ccccc4)[C@@H](c4ccccc4)N3[C@@H](c3ccc(O)cc3)[C@]13C(=O)Nc1ccccc13)CC2 | inactive |
| O=C(C[C@@H]1CC[C@H]2[C@@H](COC[C@@H](O)CN2Cc2ccccc2F)O1)N[C@H]1CCN(Cc2ccccc2)C1 | inactive |
| Cc1ccc(S(=O)(=O)Nc2ccc3c(c2)C(=O)N([C@H](C)CO)C[C@@H](C)[C@@H](CN(C)S(=O)(=O)c2cn(C)cn2)O3)cc1 | inactive |
| C[C@H](CO)N1C[C@H](C)[C@@H](CN(C)Cc2ccc(Cl)c(Cl)c2)Oc2ccc(NC(=O)C3CCCCC3)cc2CC1=O | inactive |

| Structure (SMILES) | growth inhibition call |
| --- | --- |
| C[C@@H]1CCCCO[C@H](CN(C)Cc2ccccc2)[C@H](C)CN([C@@H](C)CO)C(=O)c2cc(NC(=O)NC3CCCCC3)ccc2O1 | inactive |
| Cc1ccc(S(=O)(=O)N(C)C[C@H]2OCCCC[C@H](C)Oc3ccc(NC(=O)Nc4cccc5ccccc45)cc3C(=O)N([C@@H](C)CO)C[C@H]2C)cc1 | inactive |
| Cc1noc(C)c1NC(=O)N(C)C[C@@H]1Oc2c(NC(=O)C3CC3)cccc2C(=O)N([C@H](C)CO)C[C@@H]1C | inactive |
| C[C@@H]1CN([C@H](C)CO)C(=O)c2cccc(NS(C)(=O)=O)c2O[C@@H]1CN(C)Cc1ccc(C(F)(F)F)cc1 | inactive |
| COC(=O)[C@@H]1CC(=O)N(C(C)C)C1 | inactive |
| CN(C)C(=O)c1cccc(-c2cccc(-c3nc(C(=O)NC4CCCCC4)cc4c3[C@@H](CCO)N([S@](=O)C(C)(C)C)C4)c2)c1 | inactive |
| C[C@H](CO)N1C[C@H](C)[C@H](CN(C)C(=O)Nc2ccc(F)cc2)Oc2ccc(NS(C)(=O)=O)cc2CC1=O | inactive |
| COc1ccc(S(=O)(=O)Nc2ccc3c(c2)CC(=O)N([C@@H](C)CO)C[C@H](C)[C@H](CN(C)S(=O)(=O)c2ccc(F)cc2)O3)cc1 | inactive |
| C[C@@H]1CN([C@@H](C)CO)C(=O)CCCn2cc(nn2)CO[C@H]1CN(C)C(=O)c1cc(-c2ccccc2)on1 | inactive |
| C[C@@H]1CN([C@H](C)CO)S(=O)(=O)c2ccc(C#CC3CC3)cc2O[C@@H]1CN(C)C(=O)Cc1ccncc1 | inactive |
| COCCN1C[C@H]2CN(Cc3cnn(C)c3)C[C@H]2C1=O | inactive |
| COc1ccc(CN(C)C[C@@H]2OCCCC[C@H](C)Oc3ccc(NC(=O)Nc4ccc5c(c4)OCO5)cc3C(=O)N([C@@H](C)CO)C[C@@H]2C)cc1 | inactive |
| C[C@@H]1CCCCO[C@@H](CN(C)C(=O)Nc2ccccc2)[C@H](C)CN([C@H](C)CO)C(=O)c2cc(NC(=O)Nc3ccc(C(F)(F)F)cc3)ccc2O1 | inactive |
| CCOP(=O)(CC(=O)O[C@H]1[C@H](OC(=O)Nc2ccccc2-c2ccccc2)[C@H](OC(=O)Nc2ccccc2-c2ccccc2)[C@@H](OC)O[C@@H]1COC(=O)NCCCCCC(=O)NO)OCC | inactive |
| C[C@H](CO)N1C[C@H](C)[C@@H](CN(C)C(=O)C2CCCCC2)OCCCC[C@H](C)Oc2ccc(NC(=O)C3CCCCC3)cc2C1=O | inactive |
| C[C@@H]1CN([C@@H](C)CO)C(=O)c2c(c3ccccc3n2C)-c2ccccc2CO[C@H]1CN(C)C(=O)NC1CCCCC1 | inactive |
| O=C(NCc1ccc(Oc2ccccc2)cc1)c1nc(-c2cc(Br)c(O)c(Br)c2)no1 | active |
| Cc1ncc([N+](=O)[O-])n1C | inactive |
| Cc1noc(C)c1NC(=O)Nc1ccc2c(c1)CC(=O)N([C@H](C)CO)C[C@@H](C)[C@@H](CN(C)S(C)(=O)=O)O2 | inactive |
| C[C@@H]1CCCCO[C@@H](CN(C)S(=O)(=O)c2cccs2)[C@H](C)CN([C@H](C)CO)C(=O)c2cc(NC(=O)NC3CCCCC3)ccc2O1 | inactive |
